The other results are listed elsewhere or left out.
The sequences below were run on PF3D7_0420300 AP2 domain 1 (GST-tagged) (assay: gcPBM binding intensity (ln(normalized median fluorescence intensity)); higher = stronger DNA binding).
Summary of the method: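 An Agilent 4 × 180k array carrying primer-extended double-stranded 36-bp intergenic genomic probes and negative controls received GST-tagged P. falciparum DNA-binding domains expressed in E. coli, about 25 μg on average, for 1 h. The binding buffer contained 1× PBS, 1% milk, 0.2 mg/ml BSA, 0.5% salmon testes DNA and 0.03% Triton X-100. Binding intensity is the top Masliner-normalised natural-log median intensity across replicate spots of either probe orientation, read after Alexa488 anti-GST antibody staining and a 488 nm scan.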

Sequence	gcPBM binding intensity (ln)
TTTGAAATATTTATTTGTACATATACACACTTAAAT [XGTACX_site8321]	9.29
ATATTATTTTGTCAGGGTACATTCCATAAGTTTTTT [XGTACX_site6855]	9.48
TTCTGGTGTAAATGCACACAGAAGAAGAAAAAAAAA [CACACA_site3685]	9.03
TAATTTAATTTTCCAAGAAAAAAAAAAGAAAAAAGA [CACACA_negctrl_site1703]	9.02
TAACATCCTAATGTCACACATGTTATAGGTTTAAAT [CACACA_site5649]	9.16
AATAGATTTTTATGCGTGCACACATTTAACAAAAAA	9.18
GTGCTAGTATTTAATACACACAATTGAAGTTCCTGA [CACACA_site1452]	9.38
AAAAATATAAAGAAATGTACTTATAAAAATCCCTAC [XGTACX_site3824]	9.45
TTCTGTTCAAAATATGAACACACACCGATATATATA [CACACA_site8637]	9.47
TACACCAGTTGTGGGAGTACACAAAAAAAGGGAAAA [XGTACX_site6047]	9.39
CTTTATCTTTTTCATTGTACTTTATTTTAAAATTAA [XGTACX_site4858]	9.27
TGCAGTCTGGAGAAAAGTACACAGTATCTGGTAGCT [XGTACX_site2013]	9.03
AATATCATAAAATAAAGTACAAATATATATTGAAAA [XGTACX_site8813]	9.42
TTTTAGTGAAATGAGTGTACATTATATATTTTTTTT [XGTACX_site4892]	9.12
ATTCTATATATATAAACACACAAATATTTTTATATA [CACACA_site1677]	9.28
AAGACTAATCTAGGTAGTACTTATATATCTTTATTT [XGTACX_site4572]	9.26
ATATAAGGAAGGGATGCACACAAAAGGGTACATAAG [CACACA_site9328]	9.68
ATATTTTTGTTCAGGAGTACAGTTCAAGATGAAAAT [XGTACX_site4178]	9.18
TTTGGGATATTTACAGTGCAAAGATATTTTTATAAT	9.05
TTTTTTATATATGTGTGTGTGTGTGTGTCAAGTTTA [GTGCAC_negctrl_site460]	10.3
ATAACATAATAGCAACAATTTATTTCCTCTATAACA [CACACA_negctrl_site243]	9.23
ATATAATATTACAAATGTACTTTAAAAAATTAGGAG [XGTACX_site3897]	9.21

Sequence	gcPBM binding intensity (ln)
TTGTTTCAAGAAAAAATCGAAAAACATAGAAAAAAA [XGTACX_negctrl_site615]	9.1
TATATATCAAAAATATGTACACAGAAATATATATTA [XGTACX_site6997]	9.36
ACATATAAAATATATACACACATATAAATACATTAA [CACACA_site3867]	9.75
TTGCAATAATGTTGCACACTAAATAGTCATATATAA [CACACA_site263]	9.09
CATTTTTTATAATAATGTACATGTATTAAAAAAAAA [XGTACX_site6390]	8.89
TTTATAAGAATTACTAGTACATATAAGGAATTATAT [XGTACX_site3953]	9.06
TTATAAATTTAAAGTAGTACTATACTACTATTTTAT [XGTACX_site3038]	9.04
ATCCACAAAATAGGATGTACATATAAAATAAATAAA [XGTACX_site5362]	9
TATGGAATAATACGCGTACACACATATATATATTAA [CACACA_site132]	9.61
AAATTATTATGTATTTGTACACATAAGAATATAAAA [XGTACX_site6841]	9.1
TATAAATAATGTTAAACACACATACCGATATATAAT [CACACA_site5499]	9.63
AATGGGGAAGGTTCTACACACAACGCAAATGCCTTA [CACACA_site2758]	9.57
AGAGAAAGAAAGAAATGTACAAATACCTACACACAT [XGTACX_site3140]	9.84
TCAGTTAATGTATATGTACACACGGTGAGTATATAT [CACACA_site3346]	9.43
TTTTTTACAAATGATATCATTTCTTTAAATATTAAA [TGCATGCA_negctrl_site279]	8.83
CTATAAATGAATGTTTGTACTTAATAATAAAAGAAA [XGTACX_site3170]	9.06
TATTTTTTTCATAACAGTACAATAATATATATTTTT [XGTACX_site5739]	9.08
GCACACACAAAAAAAGCATGCATACTAGCTATTTTT [TGCATGCA_site18]	9.35
AATCAAAAAAAATGTTGTACGCCTAATTATAATTAA [XGTACX_site8906]	9.11
AAAAAACACCCATACACACACACACCGATATATATA [CACACA_site5808]	10.2
TATTCGTGCAATAATAGTACACTTATAAATTATTCA [XGTACX_site8993]	9.03
AATGAAATAAATAAGGGTACACATAAATATATATAT [XGTACX_site7006]	9.72

Sequence	gcPBM binding intensity (ln)
TGTTGTAACAAAAGTACACACACATTTCTATAAATT [CACACA_site8894]	9.51
ATTACATAACAATATACACACTATTGATTAAAGAGA [CACACA_site5602]	9.56
TTTATTAGATAACGATAAACGAAAAAAAAAAAATAA [GTGCAC_negctrl_site81]	9.18
ATAATATAAATAAAGCGTACTTAATTTTATATATAT [XGTACX_site4626]	9.19
CATTATGTCATAAATGCACACATATATATATACATA [CACACA_site8454]	9.34
TATTTAAAAGTATATACACACAACTGGAATGAAAAG [CACACA_site4126]	9.75
TATGTATGCCCTAATGCATGTGAACAAAATAATATA [TGCATGCA_site407]	9.15
ATTATAACACCTCCCCCCCTTTTTTTATGAAGACCA [CACACA_negctrl_site1043]	10.4
TATTTTAATCGTAAGTGTACTCTTTTAAGTATATGT [XGTACX_site8591]	9.2
AAAATTAAAAAAATAAATACATTATATAATTAAAAA [CACACA_negctrl_site1426]	9.04
AACAGACATAGACACACACACATATATTTATTTATA [CACACA_site7571]	9.83
TTTTTTAAATTTTGAATTATAACTACATTAAAGAAA [GTGCAC_negctrl_site279]	8.63
ATGCAAATAATATAAAGTACACAACATCGCCCAAAG [XGTACX_site1825]	9.66
TCACATACATTACTTACACACCATATTAATATATAC [CACACA_site8047]	9.68
AATAAAAAATAAAAAATAAACAGTATACATATATAT [GTGCAC_negctrl_site31]	9.59
TCATATTAATTTGATAGTACATATACTTTGAAGTCC [XGTACX_site3767]	9.06
TGTATATAAACAAGGGGTACAATAATATAAATAAAT [XGTACX_site8675]	9.6
TTTTTTTTTTTTTTTACACACTATAGGGAAAAAAAA [CACACA_site1916]	8.81
AAAAATATAATATATCTAAAATTTTTCATTAAATAT [XGTACX_negctrl_site274]	8.98
ACATATATATATTTATATATATATATATATATGTGA [CACACA_negctrl_site613]	8.99
ATAAATAAAAATACATGAACAGGTCAGGTTATTTTT [CACACA_negctrl_site1007]	9.3
TTATATATAGAATAAACATGCATTTGTATATGAATA [TGCATGCA_site604]	9.21

Sequence	gcPBM binding intensity (ln)
TATTTTGCTCATCCATGTACACATAGATATATTTTA [XGTACX_site8244]	9.3
TTCTTTTCAGAAGGAAAGAATTATAACATATCATAA [XGTACX_negctrl_site548]	8.83
ATATTATGTGAAGAACGTACAAATTTTTACACTATA [XGTACX_site1485]	9.3
TAAAAGAAATAAGGTGCACACATATACATATATATA [CACACA_site8037]	9.55
TTTCTAAATGTTTATATATATATATATATATAAATA [GTGCAC_negctrl_site397]	9.01
CTATAAATAACAGAAAGTACATATACATGGATATAT [XGTACX_site3317]	9.52
AATATATCAAAAATTGGATAGTTTCTTATAAAAAAT [CACACA_negctrl_site39]	9.11
TATTTTATAATTTACCGTACATTAATTGTATTATTA [XGTACX_site5722]	9.33
ATATATTTTATATGTGTGCACTATATATATATATAT	9.38
TCTTATTTTATAAATATAAATATATATATATATATA [GTGCAC_negctrl_site479]	8.89
ATATATTTTAAAGAAAGTACCCACCGTTTGAAGTCA [XGTACX_site2273]	9.42
TGTTATATATATTGACTTAATAAATAAATAAATATA [GTGCAC_negctrl_site590]	8.92
ATTAATATATAACGTGCACACACACCGTTACGTATG [CACACA_site8543]	9.87
TTACAAAACACTTATACACACATATAAATATAAATA [CACACA_site7307]	9.61
CTCCTCATATAATTTTGTACATAAAAAATTACCATT [XGTACX_site3879]	9.2
AGTATAAAAATAAGCACACACACAAATATATATTTA [CACACA_site923]	10.2
TTTCTTCTGCATTATGCACACTATAATTCGTTAAAA [CACACA_site5568]	9.27
TTTTCTTTTACAAAGGGTACATAATTTAAATTCATA [XGTACX_site3876]	8.89
ATAATATAAATATTAACACACATCCTTTTATGTATA [CACACA_site6685]	9.41
AAATAAGCATATACAAACATGCATACATATAAATAA [CACACA_negctrl_site246]	9.38
AAAAAAAAAAAATCATGTACTTATTTTTCATTGTTG [XGTACX_site1542]	9.08
CTTATATTAAAAACTTGTACACATGTTAAGAATTTT [XGTACX_site5857]	9.07

Source: the supplement of paper PMC11417369
